Assay results as given in patent US12060387B2, “Polypeptide-based shuttle agents for improving the transduction efficiency of polypeptide cargos to the cytosol of target eukaryotic cells, uses thereof, methods and kits relating to same” (priority 2015, dated 2024).
Not every detail of the peptide structures is certain; ends, links or a residue may be inferred. Some entries repeat one wording, which the source may state once for all of them. Where no end group is shown, it is not given here.

Key:
[1] = system: HeLa cells; test: GFP-NLS transduction efficiency, flow cytometry (Pos cells %, relative fluorescence intensity FL1-A); format: cell-based, Human; conditions: for effect of the variation of the shuttle on transduction efficiency (in words): GFP-NLS 5 μM with 20 μM shuttle variant; for effect of the variation of the shuttle on transduction efficiency (in words) / Mean % cells with GFP signal (±St. Dev.; n = 3), FIG. 29I / GFP-NLS transduction efficiency: 1 minute; for Mean % cells with GFP signal (±St. Dev.; n = 3), FIG. 29I: shuttle 20 μM; for Mean % cells with GFP signal (±St. Dev.; n = 3), FIG. 29A / Mean % cells with GFP signal (±St. Dev.; n = 3), FIG. 29E / Mean % cells with GFP signal (±St. Dev.; n = 3), FIG. 29F: shuttle 50 μM; for GFP-NLS transduction efficiency: GFP-NLS 5 μM with 20 μM shuttle, Table 10.3e; for Mean % cells with GFP signal (±St. Dev.; n = 3), FIG. 29B / Relative fluorescence intensity (FL1-A) (n = 3), FIG. 29C / Mean % cells with GFP signal (±St. Dev.; n = 3), FIG. 29G / Relative Fluorescence Intensity (FL1-A) (±St. Dev.; n = 3), FIG. 29H: shuttle 10 μM; for Relative fluorescence intensity (FL1-A) (n = 3), FIG. 29C: Protocol C
[2] = system: THP-1 cells; test: as above; format: cell-based, human; conditions: Protocol C, shuttle 1 μM, GFP-NLS 5 μM
[3] = Protocol B, GFP-NLS 5 μM, 10 seconds
[4] = Protocol B, GFP-NLS 5 μM, incubation 1 min.
[5] = Protocol B, GFP-NLS 5 μM, incubation 2 min.
[6] = Protocol B, GFP-NLS 5 μM, incubation 5 min.

## KWKLFKKIGAVLKVLTTGGGSYARAAARQARA [CM18-L1-PTD4]
[1]; Protocol B
  effect of the variation of the shuttle on transduction efficiency (in words): did not result in a dramatic loss of transduction efficiency
[1]; Protocol B, GFP-NLS 5 μM
  Mean % cells with GFP signal (±St. Dev.; n = 3), FIG. 29I: 48.5 ± 3.0%

## HHHHHHKWKLFKKIGAVLKVLTTGGWTLNSAGYLLKINLKALAALAKKIL [His-CM18-Transportan (TPT)]
[1]; [3]
  Mean % cells with GFP signal (±St. Dev.; n = 3), FIG. 29A: 33.2 ± 2.8%
  Mean % cells with GFP signal (±St. Dev.; n = 3), FIG. 29E: 33.2 ± 2.82%

## YARAAARQARA [PTD4, reference compound]
[1]; GFP-NLS 5 μM with 50 μM peptide, 10 seconds, Protocol B, Table 10.4
  GFP-NLS transduction by single-domain or His-CPD peptides (in words): not able to successfully transduce GFP-NLS
[1]; Protocol B, peptide 50 μM, GFP-NLS 5 μM, 10 seconds
  Mean % cells with GFP signal (±St. Dev.; n = 3), FIG. 29D: 1.1 ± 0.06%

## HHHKWKLFKKIGAVLKVLTTGYARAAARQARA [3His-CM18-PTD4]
[1]; Protocol B
  effect of the variation of the shuttle on transduction efficiency (in words): did not result in a complete loss of transduction efficiency and cell viability
[1]; Protocol B, GFP-NLS 5 μM
  Mean % cells with GFP signal (±St. Dev.; n = 3), FIG. 29I: 39.4 ± 0.5%

## KWKLFKKIGAVLKVLTTGHHHHHHYARAAARQARA [CM18-His-PTD4]
[1]; Protocol B
  effect of the variation of the shuttle on transduction efficiency (in words): did not result in a complete loss of transduction efficiency and cell viability
[1]; Protocol B, GFP-NLS 5 μM
  Mean % cells with GFP signal (±St. Dev.; n = 3), FIG. 29I: 61.7 ± 1.8%

## HHHAHHHKWKLFKKIGAVLKVLTTGYARAAARQARA [HA-CM18-PTD4]
[1]; Protocol B
  effect of the variation of the shuttle on transduction efficiency (in words): did not result in a complete loss of transduction efficiency and cell viability
[1]; Protocol B, GFP-NLS 5 μM
  Mean % cells with GFP signal (±St. Dev.; n = 3), FIG. 29I: 42.3 ± 4.2%

## GLFEALLELLESLWELLLEAYARAAARQARA [JST-PTD4]
[1]; [3]
  Mean % cells with GFP signal (±St. Dev.; n = 3), FIG. 29E: 0.84 ± 0.69%

## CC[C@H](C)[C@H](NC(=O)[C@@H](NC(=O)[C@H](Cc1ccccc1)NC(=O)[C@@H](N)CCCCN)[C@@H](C)O)C(=O)N[C@H](C(=O)N[C@@H](Cc1ccccc1)C(=O)N1CCC[C@H]1C(=O)N[C@@H](Cc1c[nH]cn1)C(=O)N[C@@H](CC(N)=O)C(=O)N[C@@H](CCC(N)=O)C(=O)N[C@@H](CCCCN)C(=O)NCC(=O)N[C@@H](CC(N)=O)C(=O)N[C@@H](Cc1c[nH]c2ccccc12)C(=O)N[C@@H](CCCCN)C(=O)N[C@@H](CC(N)=O)C(=O)N[C@H](C(=O)N1CCC[C@H]1C(=O)N[C@@H](CO)C(=O)N[C@@H](CC(N)=O)C(=O)N[C@@H](Cc1ccc(O)cc1)C(=O)N[C@@H](Cc1c[nH]cn1)C(=O)N[C@@H](Cc1ccc(O)cc1)C(=O)N[C@@H](CS)C(=O)N1CCC[C@H]1C(=O)N[C@@H](Cc1ccc(O)cc1)C(=O)N[C@@H](C)C(=O)N[C@@H](CCCNC(=N)N)C(=O)N[C@@H](C)C(=O)N[C@@H](C)C(=O)N[C@@H](C)C(=O)N[C@@H](CCCNC(=N)N)C(=O)N[C@@H](CCC(N)=O)C(=O)N[C@@H](C)C(=O)N[C@@H](CCCNC(=N)N)C(=O)N[C@@H](C)C(=O)O)C(C)C)C(C)C [VSVG-PTD4]
[1]; [3]
  Mean % cells with GFP signal (±St. Dev.; n = 3), FIG. 29E: 3.5 ± 1.1%

## KWKLFKKIGAVLKVLTTGYARAAARQARA [CM18-PTD4]
[1]; Protocol B
  GFP-NLS transduction efficiency: 47.6%
[1]; Protocol B, GFP-NLS 5 μM
  Mean % cells with GFP signal (±St. Dev.; n = 3), FIG. 29I: 47.6 ± 2.6%

## MHHHHHHKWKLFKKIGAVLKVLTTGYGRKKRRQRRRC [Met-His-CM18-TAT-Cys]
[1]; [3]
  Mean % cells with GFP signal (±St. Dev.; n = 3), FIG. 29E: 49.3 ± 4.1%

## KETWWETWWTEWSQPKKKRKVWEAKLAKALAKALAKHLAKALAKALKACEA [Pep1-KALA]
[1]; [3]
  Mean % cells with GFP signal (±St. Dev.; n = 3), FIG. 29F: 17.2 ± 3.07%

## YGRKKRRQRRRCWEAKLAKALAKALAKHLAKALAKALKACEA (cysteines drawn unpaired) [TAT-KALA]
[1]; [4]
  Mean % cells with GFP signal (±St. Dev.; n = 3), FIG. 29B: 83.7 ± 3.5%
[1]; [5]
  Mean % cells with GFP signal (±St. Dev.; n = 3), FIG. 29B: 86.2 ± 4.3%
[1]; [6]
  Mean % cells with GFP signal (±St. Dev.; n = 3), FIG. 29B: 68.1 ± 3.0%
[1]; [3]
  Mean % cells with GFP signal (±St. Dev.; n = 3), FIG. 29A: 56.3 ± 3.6%
  Mean % cells with GFP signal (±St. Dev.; n = 3), FIG. 29F: 56.3 ± 3.6%
[1]; GFP-NLS 5 μM, incubation 1 min.
  Relative fluorescence intensity (FL1-A) (n = 3), FIG. 29C: 216 367
[1]; GFP-NLS 5 μM, incubation 2 min.
  Relative fluorescence intensity (FL1-A) (n = 3), FIG. 29C: 506 158
[1]; GFP-NLS 5 μM, incubation 5 min.
  Relative fluorescence intensity (FL1-A) (n = 3), FIG. 29C: 78 010
[2]; incubation time 15 sec
  Mean % cells with GFP signal (±St. Dev.; n = 3): 47 ± 3.5%
[2]; incubation time 30 sec
  Mean % cells with GFP signal (±St. Dev.; n = 3): 52.9 ± 1.3%
[2]; incubation time 60 sec
  Mean % cells with GFP signal (±St. Dev.; n = 3): 70.1 ± 2.0%
[2]; incubation time 120 sec
  Mean % cells with GFP signal (±St. Dev.; n = 3): 82.1 ± 2.5%

## KWKLFKKIGAVLKVLTTGGGSGGGSYARAAARQARA [CM18-L2-PTD4]
[1]; Protocol B
  effect of the variation of the shuttle on transduction efficiency (in words): did not result in a dramatic loss of transduction efficiency
[1]; Protocol B, GFP-NLS 5 μM
  Mean % cells with GFP signal (±St. Dev.; n = 3), FIG. 29I: 45.5 ± 6.5%

## CC[C@H](C)[C@H](NC(=O)[C@H](CCCCN)NC(=O)[C@H](CCCCN)NC(=O)[C@H](Cc1ccccc1)NC(=O)[C@H](CC(C)C)NC(=O)[C@H](CCCCN)NC(=O)[C@H](Cc1c[nH]c2ccccc12)NC(=O)[C@H](CCCCN)NC(=O)[C@H](Cc1c[nH]cn1)NC(=O)[C@H](C)NC(=O)[C@H](Cc1c[nH]cn1)NC(=O)[C@H](Cc1c[nH]cn1)NC(=O)[C@H](C)NC(=O)[C@H](Cc1c[nH]cn1)NC(=O)[C@H](Cc1c[nH]cn1)NC(=O)[C@H](C)NC(=O)[C@@H](N)Cc1c[nH]cn1)C(=O)NCC(=O)N[C@@H](C)C(=O)N[C@H](C(=O)N[C@@H](CC(C)C)C(=O)N[C@@H](CCCCN)C(=O)N[C@H](C(=O)N[C@@H](CC(C)C)C(=O)N[C@H](C(=O)N[C@H](C(=O)NCC(=O)N[C@@H](Cc1ccc(O)cc1)C(=O)N[C@@H](C)C(=O)N[C@@H](CCCNC(=N)N)C(=O)N[C@@H](C)C(=O)N[C@@H](C)C(=O)N[C@@H](C)C(=O)N[C@@H](CCCNC(=N)N)C(=O)N[C@@H](CCC(N)=O)C(=O)N[C@@H](C)C(=O)N[C@@H](CCCNC(=N)N)C(=O)N[C@@H](C)C(=O)O)[C@@H](C)O)[C@@H](C)O)C(C)C)C(C)C [3HA-CM18-PTD4]
[1]; Protocol B
  effect of the variation of the shuttle on transduction efficiency (in words): did not result in a complete loss of transduction efficiency and cell viability
[1]; Protocol B, GFP-NLS 5 μM
  Mean % cells with GFP signal (±St. Dev.; n = 3), FIG. 29I: 37.2 ± 3.9%

## HHHHHHKWKLFKKIGAVLKVLTTGYARAAARQARAHHHHHH [His-CM18-PTD4-His]
[1]; Protocol B
  effect of the variation of the shuttle on transduction efficiency (in words): did not result in a complete loss of transduction efficiency and cell viability
  GFP-NLS transduction efficiency: 68%
[1]; [4]
  Mean % cells with GFP signal (±St. Dev.; n = 3), FIG. 29G: 68.6 ± 3.5%
[1]; [5]
  Mean % cells with GFP signal (±St. Dev.; n = 3), FIG. 29G: 74.1 ± 4.3%
[1]; [6]
  Mean % cells with GFP signal (±St. Dev.; n = 3), FIG. 29G: 59.8 ± 4.0%
[1]; Protocol B, GFP-NLS 5 μM
  Mean % cells with GFP signal (±St. Dev.; n = 3), FIG. 29I: 68.0 ± 6.0%
[1]; GFP-NLS 5 μM, incubation 1 min
  Relative Fluorescence Intensity (FL1-A) (±St. Dev.; n = 3), FIG. 29H: 204 338
[1]; GFP-NLS 5 μM, incubation 2 min
  Relative Fluorescence Intensity (FL1-A) (±St. Dev.; n = 3), FIG. 29H: 307 329
[1]; GFP-NLS 5 μM, incubation 5 min
  Relative Fluorescence Intensity (FL1-A) (±St. Dev.; n = 3), FIG. 29H: 619 964

## HHHHHHKWKLFKKIGAVLKVLTTGRRRRRRRRR [His-CM18-9Arg]
[1]; [3]
  Mean % cells with GFP signal (±St. Dev.; n = 3), FIG. 29A: 57.2 ± 3.9%
  Mean % cells with GFP signal (±St. Dev.; n = 3), FIG. 29E: 57.2 ± 3.93%

## HHHHHHHHHHHHKWKLFKKIGAVLKVLTTGYARAAARQARA [12His-CM18-PTD4]
[1]; Protocol B
  effect of the variation of the shuttle on transduction efficiency (in words): did not result in a complete loss of transduction efficiency and cell viability
[1]; Protocol B, GFP-NLS 5 μM
  Mean % cells with GFP signal (±St. Dev.; n = 3), FIG. 29I: 36.9 ± 4.3%

## YGRKKRRQRRRCKWKLFKKIGAVLKVLTTG [TAT-CM18]
[1]; [3]
  Mean % cells with GFP signal (±St. Dev.; n = 3), FIG. 29A: 39.4 ± 3.9%
  Mean % cells with GFP signal (±St. Dev.; n = 3), FIG. 29F: 39.4 ± 3.9%
